Source: the supplement of paper PMC3334620
Over roughly 33,000 sequences, “E-score (-0.5 to 0.5)” has its median near -0.054; the highest 2% begin near 0.35. This is one part of the list.

Each sequence was assayed against T1, Stb5 (UniProt P38699) (assay: PBM E-score (8-mer binding enrichment) (E-score (-0.5 to 0.5)); higher = stronger / more preferred TF binding; most listed sequences are background and not binding sites). Details: protein concentration: 200 nM; construct: GST-full length.
T1 sequence: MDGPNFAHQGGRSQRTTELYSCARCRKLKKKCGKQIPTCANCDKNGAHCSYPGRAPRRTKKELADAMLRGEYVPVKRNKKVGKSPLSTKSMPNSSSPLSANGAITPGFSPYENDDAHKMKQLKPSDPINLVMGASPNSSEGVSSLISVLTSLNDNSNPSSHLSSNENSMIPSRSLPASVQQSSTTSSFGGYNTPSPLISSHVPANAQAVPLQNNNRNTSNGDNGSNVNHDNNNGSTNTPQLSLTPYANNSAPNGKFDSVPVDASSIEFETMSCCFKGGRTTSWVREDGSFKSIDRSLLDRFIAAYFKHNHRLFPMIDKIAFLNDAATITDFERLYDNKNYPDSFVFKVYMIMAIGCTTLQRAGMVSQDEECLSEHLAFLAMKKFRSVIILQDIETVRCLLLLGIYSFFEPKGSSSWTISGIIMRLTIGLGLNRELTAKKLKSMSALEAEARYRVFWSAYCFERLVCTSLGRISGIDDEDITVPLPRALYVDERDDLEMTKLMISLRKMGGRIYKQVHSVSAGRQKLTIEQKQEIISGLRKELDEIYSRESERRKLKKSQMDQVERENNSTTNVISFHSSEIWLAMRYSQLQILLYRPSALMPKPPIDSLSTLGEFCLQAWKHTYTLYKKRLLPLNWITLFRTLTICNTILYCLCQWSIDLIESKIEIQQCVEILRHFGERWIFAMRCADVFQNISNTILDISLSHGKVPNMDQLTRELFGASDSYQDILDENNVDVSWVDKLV
In short: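 E-scores (a modified Wilcoxon-Mann-Whitney statistic) were assigned by the Universal PBM Analysis Suite to every ungapped eight-base word pooled with its reverse complement. The input came from universal all-10-mer Agilent arrays made double-stranded by primer extension and probed with GST-tagged yeast transcription factors at about 100-200 nM. Fluorescent anti-GST detected bound protein, and masliner normalised the scans.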

Sequence	PBM E-score
CAGACCTG	-0.288
AGGTTAAT	-0.1
ACTCAGAA	-0.0804
CCGGGACA	0.246
GCTGTACC	0.0959
AAGGTGCG	0.166
AGGATTAG	-0.2
CGCACGCC	-0.0263
ATTTGTTC	0.0488
ACTCTCTG	-0.163
GGTCGTAA	0.255
GACTTTGC	0.0127
AAAACATA	-0.0479
AGTATCTC	0.121
AATACGTG	-0.0843
GACGGATC	0.162
ATTGATTG	-0.117
ATAAATTG	0.0566
GCTTTAAC	-0.0801
CTAGGATA	0.0118
ACGCTATG	-0.0654
CCATTCCC	-0.128

Sequence	PBM E-score
CGTGAACG	0.00374
AAAACGTA	-0.168
CGTTCACC	0.118
TAACCGTA	0.0605
GGACCCAA	0.117
GCTATTCA	0.0761
ATCCAGGG	-0.0739
AGTCCGGG	0.274
CTGCCTAC	-0.13
CGTCGCCA	-0.259
GCCAGCTA	-0.2
CGGGTGAA	0.129
GGCCGGAC	0.331
CCCGCGCG	0.342
GAGAGAAA	-0.148
CTACATAA	-0.0124
GTTGCAAC	0.183
CATAGGCC	0.159
CCTGGAGC	0.0292
ACTATTAC	0.0396
TATAACCA	0.0633
CTAAAGTC	-0.152

Sequence	PBM E-score
ACGGCCGG	0.272
ACATTTGA	0.0192
AATCTTGC	-0.142
TAAGCGAA	-0.058
ACCATCGA	-0.298
GTCAGCAA	-0.184
AGCCATTA	-0.127
TGACATCA	-0.19
ACACGTTC	-0.168
AAGAAACC	0.0277
TAATTAGA	-0.0496
AATGCCGG	0.401
GCGATCAC	0.0708
AAAAATAT	-0.0716
GGCTCAAA	0.153
CCAACCTC	-0.111
ACTCGCCC	-0.257
CTTGGCGA	-0.161
AAGAGCTA	-0.157
AGACCAAC	-0.225
CAAGGATG	-0.297
AGCCAACA	-0.201

Sequence	PBM E-score
ATCTCAGG	-0.178
AGAGCGAT	-0.138
ACGCGTGC	-0.0579
AGGGTGGG	-0.136
ACCAAAGC	0.0189
ATGATTTG	-0.115
CATGTTAG	-0.255
AGCCGGCA	0.256
GCACGTCA	-0.0656
CCTACAAC	-0.0921
GCCACACC	-0.0947
ATCACGTA	-0.221
ATTTGTAG	-0.257
ATTGGATC	0.0452
CGGGAGGC	-0.136
TGGTACAA	-0.329
ACTAATCC	0.17
GCCTGCCC	-0.0993
TATTATGA	-0.183
CTGAGTTA	-0.0893
